# Measured values from PubChem BioAssay AID1460 (National Center for Advancing Translational Sciences (NCATS), 2008).
# Hit rate of the full screen: of about 270,000 compounds, about 5,800 (2.1%) were called active. The shares of active, inactive and inconclusive entries below differ from those in the screen. Calls come from the whole dose curve; as a rule, active = well fitted inhibition curve with a large enough effect; inconclusive = small, poorly fitted or top-dose-only effect; inactive = flat fitted curve, though single readings scatter. A potency beside an inconclusive call is a rough fit, not a confirmed value.
# Target: Microtubule-associated protein tau (Homo sapiens) (UniProt P10636)
# Experiment: qHTS for Inhibitors of Tau Fibril Formation, Thioflavin T Binding; note: nearly all actives have a fitted effect of over 55% in size
# Settings: recombinant tau K18 P301L, heparin-induced fibrillization, ThT fluorescence; series mostly up to 57.4 µM
# How it was run: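 Fibril formation assay: tau K18 P301L at 15 uM with trace Alexa 594 label, heparin inducer 20 uM, pH 7 sodium acetate buffer, 37 C for 6 hr; endpoint ThT signal.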
# Potency is the fitted concentration of half-maximal effect; tags give direction and shape of the fitted curve.
# UniProt P10636, sequence (P10636 whole entry, looked up): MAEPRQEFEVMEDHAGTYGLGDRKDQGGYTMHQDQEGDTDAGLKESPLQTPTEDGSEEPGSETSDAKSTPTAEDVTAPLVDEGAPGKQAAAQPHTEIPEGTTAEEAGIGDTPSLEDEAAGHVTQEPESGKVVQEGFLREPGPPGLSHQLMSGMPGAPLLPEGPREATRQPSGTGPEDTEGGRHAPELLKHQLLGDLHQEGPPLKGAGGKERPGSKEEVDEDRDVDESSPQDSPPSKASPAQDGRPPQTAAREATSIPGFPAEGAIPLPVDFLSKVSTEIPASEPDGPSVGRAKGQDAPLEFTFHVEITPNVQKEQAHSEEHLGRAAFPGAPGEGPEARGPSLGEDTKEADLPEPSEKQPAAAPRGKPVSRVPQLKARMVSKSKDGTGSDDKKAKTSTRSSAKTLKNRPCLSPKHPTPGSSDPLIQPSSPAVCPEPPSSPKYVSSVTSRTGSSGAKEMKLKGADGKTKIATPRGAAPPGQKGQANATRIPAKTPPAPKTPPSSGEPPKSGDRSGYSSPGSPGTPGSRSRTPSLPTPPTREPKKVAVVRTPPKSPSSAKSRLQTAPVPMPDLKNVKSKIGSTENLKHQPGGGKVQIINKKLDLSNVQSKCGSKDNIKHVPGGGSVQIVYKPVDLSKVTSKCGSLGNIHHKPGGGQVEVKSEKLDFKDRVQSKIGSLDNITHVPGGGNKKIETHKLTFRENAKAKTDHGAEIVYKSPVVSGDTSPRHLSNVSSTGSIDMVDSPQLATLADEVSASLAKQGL
row,SMILES,Potency
1,CCC1(CC)N([O-])C(C)=C(c2ccccc2)[N+]1=O,inactive
2,COC(=O)c1cccc(NC(=O)Nc2ccc(Cl)c(Cl)c2)c1,"inconclusive: 39.8 µM [activator, single point]"
3,CCN(c1ccccc1C)S(=O)(=O)c1nnc(NC(=O)c2ccco2)s1,"inconclusive: 0.708 µM [inhibitor, full curve]"
4,CCCCCNc1nc2ccccc2nc1NS(=O)(=O)c1cccs1,"inconclusive: 12.6 µM [inhibitor, partial curve, poor fit]"
5,CCOC(=O)c1ccc2c(c1)nc(SCC(=O)c1ccco1)n2CC,"inconclusive: 20 µM [inhibitor, partial curve]"
6,CC(C)(C)NC(=O)C(c1ccsc1)N(CCc1ccccc1)C(=O)Cn1nnc2ccccc21 (stereo not given),inactive
7,CCC1=NN2C(=N)/C(=C\c3cccn3-c3ccc(C)cc3C)C(=O)N=C2S1,"inconclusive: 22.4 µM [inhibitor, partial curve]"
8,COc1ccc(-c2cc(C(C)=O)c(C)n2CCC(=O)NCc2ccc(C)cc2)cc1,"inconclusive: 44.7 µM [inhibitor, single point]"
9,Cc1ccc(NC(=O)Nc2cn(CC(C)C)c(=O)c3ccccc23)cc1N(C)C,"inconclusive: 15.8 µM [inhibitor, single point]"
10,O=C(O)c1cnc2[nH]c3ccccc3n2c1=O,inactive
11,CCOC(=O)CSc1nnc(CNC(=O)c2cc(OC)c(OC)c(OC)c2)n1C,"inconclusive: 0.316 µM [inhibitor, full curve, poor fit]"
12,O=C(Nc1cccnc1)c1cc(-c2ccc(Cl)cc2)on1,"inconclusive: 3.55 µM [inhibitor, full curve, poor fit]"
13,CCOc1cc(/C=C2/SC(=S)N(CC3CCCO3)C2=O)ccc1O (stereo not given),inactive
14,Cn1cccc1C(=O)C(=O)Nc1ccc(F)c(F)c1,"inconclusive: 31.6 µM [inhibitor, partial curve]"
15,CCc1ccc(-n2c(=O)c3sc4ccccc4c3n(CC(=O)NCc3ccccc3)c2=O)cc1,inactive
16,Cc1ccc2nc(C)c(C(=O)N/N=C/c3ccccc3[N+](=O)[O-])cc2c1,inactive
17,COc1ccc(C2=C(N3CCN(c4cc(C)ccc4C)CC3)c3ccccc3C2=O)cc1,"inconclusive: 8.91 µM [inhibitor, partial curve]"
18,O=C(O)CCc1ccc(-c2ccc(Cl)cc2)o1,"inconclusive: 31.6 µM [inhibitor, single point]"
19,Cc1cc(C)n(-c2cc(N3CCN(C(=O)c4cccc(Br)c4)CC3)ccc2[N+](=O)[O-])n1,"inconclusive: 28.2 µM [inhibitor, single point]"
20,CCOC(=O)CSC1=C(C#N)C(=O)NC(c2ccc(OC)cc2)S1 (stereo not given),"inconclusive: 39.8 µM [inhibitor, partial curve]"
21,Nc1nc(N2CCN(C(=O)c3ccco3)CC2)nc2ccc(Br)cc12,"inconclusive: 14.1 µM [inhibitor, partial curve]"
22,COc1ccc(-c2ccc(-c3noc(C(C)C)n3)c(OC)n2)cc1,"inconclusive: 12.6 µM [inhibitor, partial curve]"
23,COc1ccc(-c2c(C)nn3c(C(F)(F)F)cc(-c4ccccc4)nc23)cc1OC,"inconclusive: 1.58 µM [inhibitor, full curve]"
24,COc1ccc(N(C)C(=O)c2cc3c(s2)-c2c(C)cccc2OC3)c(OC)c1,"inconclusive: 12.6 µM [inhibitor, partial curve]"

row,SMILES,Potency
1,CCc1nc(SCC(=O)N2CCN(C(=O)c3ccco3)CC2)c2c3c(sc2n1)CCCC3,"inconclusive: 14.1 µM [inhibitor, partial curve]"
2,CC(=O)NC(=S)Nc1sc2c(c1C#N)CCCCC2,"inconclusive: 14.1 µM [inhibitor, partial curve]"
3,COc1ccc2c(c1)c(=O)cc(-c1ccccc1)n2C,inactive
4,CCn1c(SCC(=O)c2ccc(Cl)s2)nnc1-c1cccs1,"inconclusive: 31.6 µM [inhibitor, single point]"
5,Cc1ccc(C2NC(=O)NC(O)(C(F)(F)F)C2C(=O)c2ccccc2)o1 (stereo not given),inactive
6,O=S(=O)(Cc1ccccc1)N1CCCCC1,inactive
7,Cc1ccc(C(=O)NCC(=O)NCC(=O)OCC(=O)c2ccc([N+](=O)[O-])cc2)cc1,"inconclusive: 25.1 µM [inhibitor, partial curve]"
8,Cc1ccc(S(=O)(=O)N2CCCC2C(=O)OCc2ccco2)cc1 (stereo not given),active: 28.2 µM
9,O=C(NC(=S)NCCC1=CCCCC1)c1ccccc1Br,"inconclusive: 10 µM [inhibitor, partial curve]"
10,COc1cc(Cl)c(C)cc1NC(=O)CCc1nc2cccnc2n1Cc1cccs1,"inconclusive: 17.8 µM [inhibitor, partial curve]"
11,O=C(O[C@@H]1Cc2c(O)cc(O)cc2OC1c1ccc(O)c(O)c1)c1cc(O)c(O)c(O)c1 (stereo not given in full),active: 15.8 µM
12,CCOC(=O)c1c(NC(=O)c2ccco2)sc2c1CCCC2,inactive
13,O=C(O)c1cccc(NC(=S)NC(=O)c2ccc(-c3ccc(Cl)cc3)o2)c1,"inconclusive: 2.82 µM [inhibitor, full curve]"
14,Cc1ccc(C)c(CN2CCCN(CC(=O)Nc3ccc(C)c(C)c3)S2(=O)=O)c1,inactive
15,Cc1onc(-c2ccccc2)c1-c1csc(N/N=C/c2ccccc2)n1,"inconclusive: 5.01 µM [inhibitor, full curve, poor fit]"
16,Cc1cc(NS(=O)(=O)c2ccc(NC(=O)c3cc4cc(Br)ccc4oc3=O)cc2)no1,"inconclusive: 3.16 µM [inhibitor, full curve, poor fit]"
17,CCOC(=O)C1=C(C)N(c2ccc(OC)cc2)C(=O)/C1=C\c1ccc(O)c(OCC)c1,active: 25.1 µM
18,Fc1ccc(C(NCCc2ccccc2)c2nnc(-c3ccccc3Cl)o2)cc1 (stereo not given),"inconclusive: 12.6 µM [inhibitor, partial curve]"
19,COc1ccc(/C=C/C(=O)c2ccc3c4c(cccc24)CC3)cc1OC,inactive
20,N=c1c2c(-c3ccccc3)c(-c3ccccc3)n(Cc3ccccc3)c2ncn1CCCn1ccnc1,inactive
21,Cc1ccc2nc(-c3cccc(N)c3)[nH]c2c1,"inconclusive: 25.1 µM [inhibitor, partial curve]"
22,Cc1ccc(CNC(=O)C2CCN(S(=O)(=O)c3cccs3)CC2)o1,"inconclusive: 22.4 µM [inhibitor, single point]"
23,O=C(COC(=O)c1cnc(Cl)c(Cl)c1)NCc1ccc2c(c1)OCO2,inactive
24,COc1ccc(OC)c(CNC(=O)c2ccc(NC(=O)c3nsc4ccccc34)cc2)c1,inactive

row,SMILES,Potency
1,CCCCn1c(O)c(N=NC(=O)c2ccccc2NS(=O)(=O)c2cccs2)c2ccccc21,"inconclusive: 14.1 µM [inhibitor, single point]"
2,Nc1ccc(C(=O)Nc2ccc(OC(F)(F)C(F)F)c(NC(=O)c3ccc(N)cc3)c2)cc1,"inconclusive: 17.8 µM [inhibitor, partial curve]"
3,C=C(C)COc1ccc(-c2[nH]ncc2Oc2ccc(OC)cc2)c(O)c1,"inconclusive: 31.6 µM [inhibitor, single point]"
4,CCOC(=O)C1=C(C)NC(=S)NC1c1ccc(-c2cccc(Cl)c2C)o1 (stereo not given),inactive
5,CC(OC(=O)CCN1C(=O)c2cccc([N+](=O)[O-])c2C1=O)C(=O)Nc1cc(Cl)cc(Cl)c1 (stereo not given),inactive
6,CCCn1cc(NC(=O)c2cc(-c3ccccc3)on2)cn1,"inconclusive: 8.91 µM [inhibitor, partial curve]"
7,CC1(C)CC(=O)c2c(oc3cc4c(cc23)OCO4)C1,inactive
8,COc1ccc(-c2c(-c3ccc(OCC(=O)NN)cc3O)n[nH]c2C(F)(F)F)cc1,"inconclusive: 39.8 µM [inhibitor, single point]"
9,CCOC(=O)/C(=N\Nc1ccc(C(C)=O)cc1)c1csc(Nc2ccccc2)n1,"inconclusive: 1 µM [inhibitor, full curve]"
10,CCOC(=O)c1cccc(NC(=O)c2ccc3nc(CCc4ccccc4)oc3c2)c1,"inconclusive: 2.82 µM [inhibitor, full curve, poor fit]"
11,Cc1cc(C(=O)Nc2ccc(N3CCCCC3)cc2)no1,"inconclusive: 6.31 µM [inhibitor, partial curve]"
12,O=C(Cc1cccs1)N1CCC(c2nc3c(nnn3Cc3ccccc3Cl)c(=O)[nH]2)CC1,inactive
13,O=S(=O)(Nc1ccc2c(c1)OCO2)c1ccc(Br)s1,"inconclusive: 20 µM [inhibitor, partial curve]"
14,CSc1nc2sc3c(c2c(=O)n1C)CCC(C)C3 (stereo not given),"inconclusive: 15.8 µM [inhibitor, partial curve]"
15,O=C(CNC(=O)c1ccccc1F)NCCOc1ccccc1Cl,inactive
16,C/C(=N\NC(=O)C(N)=O)c1ccc(O)cc1O,"inconclusive: 31.6 µM [inhibitor, single point]"
17,COc1cccc(/C=N/NC(=O)c2ccc(-c3ccccc3)cc2)c1O,"inconclusive: 0.501 µM [inhibitor, full curve]"
18,COc1ccc(C2=CC3=C(Br)C(=O)C(C)(OC(=O)c4ccc(Cl)nc4)C(=O)C3=CO2)cc1 (stereo not given),active: 28.2 µM
19,C=CCNc1oc(-c2ccc(OCC)cc2)nc1C#N,"inconclusive: 17.8 µM [inhibitor, partial curve]"
20,CSc1nc(=S)c2[nH]c(=S)[nH]c2[nH]1,"inconclusive: 22.4 µM [inhibitor, partial curve]"
21,O=C(C[n+]1ccccc1)c1ccc(-c2ccccc2)cc1,inactive
22,Cc1n[nH]c(C)c1N=Nc1ccc(Br)cc1,active: 11.2 µM
